# Measured values: PubChem BioAssay AID1508624 (National Center for Advancing Translational Sciences (NCATS), 2021)
# Among all 48,000 compounds or so, about 120 (0.25%) were called active. Not shown: some 4% with an inconclusive outcome. Calls come from the whole dose curve; as a rule, active = well fitted activation curve with a large enough effect; inconclusive = small, poorly fitted or top-dose-only effect, or another doubt; inactive = no such curve, though single readings can be large or run the other way. The list shows a part of the results.
# Assay: Primary qHTS for Identification of Small Molecule Activators of Huntingtin-Antisense Promoter Activity; note: nearly all actives have a fitted effect of over 55% in size
# Details: HEK293 HTT-AS promoter firefly luciferase reporter, 24 h; series mostly up to 57.5 µM; activity change, positive = activation: at the top concentration
# Outline: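 Quantitative HTS used concentration series of up to 57.5 uM final on HEK293 luciferase reporter cells, 24 h at 37 degrees C. Readout was Dual-Glo firefly luminescence.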
# Potency is the fitted concentration of half-maximal effect.
Compound,"activity change, positive = activation",Potency
Cc1cccc(C(=O)Nc2ccc(N3CCC(N4CCCCC4)CC3)c(C(=O)O)c2)c1,inactive: -7.71%,–
COc1cc(CNc2ccc3[nH]c(=O)[nH]c3c2)cc(Br)c1OCc1ccccc1F,inactive: -25.8%,–
Cc1cccc(CN2CCN(CC(=O)Nc3c(C)cccc3C)S2(=O)=O)c1,inactive: -12%,–
Cc1ccc(C)n1-c1nnc(N2CCCC(C(=O)NCc3cccc(Br)c3)C2)s1 (configuration not stated),inactive: -16.7%,–
COCCNC(=O)CSc1nc(-c2ccccc2)[nH]c1-c1ccc(C)cc1,inactive: -18.8%,–
CC1=C(C(=O)NCc2ccc(Cl)cc2)C2(CCC(C)CC2)OC1=O (configuration not stated),inactive: -39.2%,–
NC1=NC(c2cc(F)cc(F)c2)n2c(nc3ccccc32)N1 (configuration not stated),inactive: -9.25%,–
Cc1ccc(CNC(=O)CCc2c(C)nc3c4c(C)cc(C)nc4nn3c2C)cc1,inactive: 4.88%,–
CCOc1cc(C=C2C(=O)N(c3ccccc3)N=C2C)cc(Cl)c1OCC(=O)OC,inactive: -27.3%,–
Cc1c(Cl)cccc1-n1nc(C)c2c(C)cc(=O)n(CC(=O)N3CCCc4ccccc43)c21,inactive: -4.74%,–
CCCNC(=O)C1CCN(c2nc3ccc(C)cc3[nH]2)CC1,inactive: 22.1%,–
CCCOc1ccc(CNC(=O)C2CCN(C(=O)c3sccc3-n3cccc3)CC2)cc1,inactive: -31.9%,–
Cc1cc2oc3c(c(=O)c2cc1C)C(c1ccc(C(C)C)cc1)N(c1nc(C)c(C)s1)C3=O (configuration not stated),inactive: -8.18%,–
Cc1ccc(CNC(=O)CCCN2C(=O)CCn3nc(-c4cccn4C)cc32)cc1,inactive: -27.3%,–
COc1ccc(-c2nc3ccccc3n3c(-c4ccc(OC)cc4)c4c(=O)n(C)c(=O)n(C)c4c23)cc1,"inactive: 10.6% [at 11.5 µM, percent change from vehicle, -100% = no light]",–
CCOC(=O)c1ccc2c(c1)N(Cc1ccc(F)cc1Cl)C(=O)c1ccccc1S2,inactive: -19.9%,–
Cc1cnc(=O)[nH]c1SCC(=O)Nc1cc(C(F)(F)F)ccc1Cl,inactive: -5.03%,–
CCOC(=O)Cn1c(=O)n(C2CCCCC2)c2nc(-c3ccc(OC)cc3)nc(C(N)=O)c21,inactive: -0.84%,–
Nc1ccc(C(=O)Nc2ccccc2N)cc1,inactive: 29.1%,–
COc1ccc(Cc2nc3ccc(C(=O)NCCc4ccc(OC)c(OC)c4)cc3o2)cc1,inactive: -28.3%,–
COc1cc(NC(=O)c2ccc(-c3ccc(Cl)cc3)o2)cc(OC)c1,inactive: -5.82%,–
Cn1c(=O)n(C)c2cc(CNCc3ccccc3)ccc21,inactive: -2.01%,–
Cc1cc(C)c(S(=O)(=O)Nc2cc(Cl)c3oc4c(c3c2)C(=O)CCC4)cc1C,inactive: -7.27%,–

Compound,"activity change, positive = activation",Potency
Cc1ccc(CNS(=O)(=O)c2cc(Br)cc3c2N(C(=O)C2CC2)CC3)cc1,inactive: -13.3%,–
CCOc1ccc(C(=O)Nc2ccc(-c3nnc4n3CCCCC4)cc2)cc1OCC,inactive: -10.1%,–
Cc1cccc2c(=O)cc(CSCC(=O)Nc3ccc(Cl)cc3)[nH]c12,inactive: -28.1%,–
Cc1ccc(Cn2c(=O)n(Cc3ccccc3)c(=O)c3c(C)c(C)sc32)cc1,inactive: 3.01%,–
Cc1ccc(CNC(=O)C(=O)NCC(c2ccco2)S(=O)(=O)c2ccc(C)cc2)cc1 (configuration not stated),inactive: -2.57%,–
CCCCOc1cccc(C(=O)N(Cc2ccc(Br)o2)C2CCS(=O)(=O)C2)c1 (configuration not stated),inactive: -30.3%,–
Cc1cccc(C(=O)Nc2ccc(C(=O)OCc3cc(=O)n4c(C)csc4n3)cc2)c1,inactive: -34.7%,–
NC(=O)CSc1oc(-c2cccs2)nc1S(=O)(=O)c1ccc(Br)cc1,inactive: -9.92%,–
Cc1cc(F)ccc1NC(=O)C1CCN(S(=O)(=O)c2ccc3c(c2)CCCC(=O)N3)CC1,inactive: -20.6%,–
O=C(Cn1c(=O)c(C(F)(F)F)nc2ccccc21)Nc1ccc(Br)cc1F,inactive: -3.56%,–
COc1ccc(S(=O)(=O)N2CCN(c3ccccc3)CC2)cc1-c1noc(C)n1,inactive: -13.9%,–
COC(=O)c1ccc(NC(=O)N2CCN(c3nnc(C)c4c(C)n(-c5ccccc5)nc34)CC2)cc1,inactive: -4.77%,–
O=C(c1cnc2c(c1)COc1ccccc1-2)c1ccccc1O,inactive: 23.9%,–
Cn1nc(-c2ccccc2F)c2cc(C(=O)Nc3cc(F)ccc3F)sc21,inactive: -11.1%,–
Cc1ccccc1Cn1cc(CCC(=O)NCc2cccc(Br)c2)c2ccccc21,inactive: -35.6%,–
COc1ccc(S(=O)(=O)NCC(c2ccco2)N2CCN(c3ccc(F)cc3)CC2)cc1 (configuration not stated),inactive: -34.9%,–
CC(C)(C)NC(=O)CSc1nc(-c2ccc(F)cc2)cc(C(F)(F)F)n1,inactive: -27.2%,–
CC(C)c1cnc2c(c1SCC(=O)c1ccccc1)c(=O)n(C)c(=O)n2C,inactive: -23.6%,–
O=C(NCc1ccccc1)c1ccc2c(c1)N(Cc1ccccc1)C(=O)c1ccccc1S2(=O)=O,inactive: -20.2%,–
Cc1c(-c2nnc(SCC(=O)Nc3ccc(Br)cc3)o2)nnn1-c1ccc(F)cc1,inactive: 2.25%,–
O=C(Cn1c(=O)n(Cc2ccc(C(=O)NCc3ccc4c(c3)OCO4)cc2)c(=O)c2ccccc21)Nc1ccc(F)cc1F,inactive: -15.4%,–
COC(=O)c1ccn(-c2nc(-c3ccc(Cl)cc3)cc(C(F)(F)F)n2)n1,inactive: -23.5%,–
c1ccc2c(Oc3nc(Nc4ccc(N5CCOCC5)cc4)c4ncn(C5CCCCC5)c4n3)cccc2c1,inactive: -10.2%,–

Compound,"activity change, positive = activation",Potency
CCOc1ccc(CNCCSc2nnnn2C)cc1OC,inactive: -6.83%,–
O=C(CS(=O)(=O)c1cccc2nsnc12)N1CCN(c2ccccc2)CC1,inactive: -10.2%,–
COC(=O)c1ccccc1NC(=O)c1cn2c3c(ccc(Cl)c3c1=O)OC(C)C2 (configuration not stated),inactive: -14.8%,–
CCCCNC(=O)C1CCN(c2nc3ccc(C)cc3[nH]2)CC1,inactive: 8.35%,–
CC(C)c1ccc(CN(Cc2ccco2)c2cnc(S(C)(=O)=O)nc2C(=O)Nc2ccccc2)cc1,inactive: -21.8%,–
CC(C)(C)C(=O)Nc1nc2nc(-c3ccccc3)cc(=O)n2[nH]1,inactive: 21.2%,–
CCCCNC(=O)CN1C(=O)c2c(c3ccccc3n2C)C1c1ccc(OC)cc1 (configuration not stated),inactive: -19%,–
Cc1ccc2oc(-c3cccc(NC(=O)c4ccc(N5CCC(C)CC5)c([N+](=O)[O-])c4)c3)nc2c1,inactive: 3.64%,–
COc1ccc(Nc2nc(Nc3ccc(OC)cc3OC)nc(N3CCOCC3)n2)c(OC)c1,inactive: -31.1%,–
COc1ccc(C2CC(=O)c3cc(-c4nc(-c5cccc([N+](=O)[O-])c5)cs4)c(=O)n(-c4ccc(F)cc4)c3C2)cc1 (configuration not stated),inactive: -8.18%,–
CCc1cccc(C)c1NC(=O)c1cc(S(=O)(=O)N2CCC3(CC2)OCCO3)ccc1F,inactive: -22.5%,–
Cc1oc(-c2ccc(Cl)cc2)nc1CN1CCCC(C(=O)NCCc2ccccc2)C1 (configuration not stated),inactive: -33.1%,–
C=CCn1c(=O)n([C@@H]2O[C@H](CO)[C@@H](O)[C@H]2O)c2nc(N)[nH]c(=O)c21,inactive: -2.47%,–
CC(=O)c1ccc(NC(=O)CSc2c(C(C)C)cnc3c2c(=O)n(C)c(=O)n3C)cc1,inactive: -15.8%,–
C[C@]12C=CC(=O)C=C1CC[C@@H]1[C@@H]2C(=O)C[C@@]2(C)[C@H]1CC[C@]2(O)C(=O)CO,inactive,–
COc1ccc(CNc2nc3c(-c4cccc(F)c4)nnn3c3ccccc23)cc1,inactive: 21.2%,–
COc1ccc(N(C)C(=O)c2cc3c(s2)-c2c(C)cccc2OC3)c(OC)c1,inactive: -24.7%,–
COc1ccc(-c2c(C)nn3c(C(F)(F)F)cc(-c4ccccc4)nc23)cc1OC,inactive: -3.01%,–
Cc1ccc(NC(=O)c2c(C)oc3c2C2=NCCN2C=N3)cc1F,inactive: -3.97%,–
CN(CC(=O)NCc1ccc(F)cc1)S(=O)(=O)c1ccc2[nH]c3c(c2c1)CCCC3,inactive: -41.7%,–
Cc1cccn2c(=O)cc(CSc3nnc(NC(=O)COc4ccccc4)s3)nc12,inactive: -6.73%,–
COC(=O)c1cc2sccc2n1CC(=O)Nc1ccc(OC)c(OC)c1,inactive: 2.21%,–
CCc1ccc(-n2c(=O)c3sc4ccccc4c3n(CC(=O)NCc3ccccc3)c2=O)cc1,inactive: -7.41%,–

Compound,"activity change, positive = activation",Potency
Cc1c(Cl)cccc1NC(c1ccc(F)cc1)c1nnc(-c2ccccc2)o1 (configuration not stated),inactive: -16.5%,–
O=C(Nc1cccnc1)c1cc(-c2ccc(Cl)cc2)on1,inactive: -3.22%,–
O=C(c1ccc2c(c1)N(Cc1cccc(F)c1)C(=O)c1ccccc1S2)N1CCC2(CC1)OCCO2,inactive: -29.3%,–
CCOC(=O)c1cc(S(=O)(=O)N2CCN(c3cccc(C)c3C)CC2)[nH]n1,inactive: -21.2%,–
CNC(=O)c1c(NC(=O)c2nc(SCc3ccc(C)cc3)ncc2Cl)sc2c1CCCC2,inactive: -6.75%,–
Cc1ccc(NC(=O)Nc2cn(CC(C)C)c(=O)c3ccccc23)cc1N(C)C,inactive: -24.2%,–
COc1ccc(-c2cc(C(C)=O)c(C)n2CCC(=O)NCc2ccc(C)cc2)cc1,inactive: -24.6%,–
COc1cccc(CNC(=O)C2CCN(C(=O)c3cnn(-c4ccccc4)c3-n3cccc3)CC2)c1,inactive: -41.1%,–
CCN(c1ccccc1C)S(=O)(=O)c1nnc(NC(=O)c2ccco2)s1,inactive: -29.3%,–
COc1ccccc1OCC(=O)N1CCC(c2nc3ccccc3o2)CC1,inactive: -9.93%,–
Cc1ccc(-n2ncc(C(=O)NC3CCCCC3)c2C2CCN(C(=O)OC(C)(C)C)CC2)cc1,inactive: -5.05%,–
CCCS(=O)(=O)c1ncc(Cl)c(C(=O)Nc2c(C(=O)Nc3ccccc3)oc3ccccc23)n1,inactive: -12%,–
CC(C)N(Cc1ccccc1)C(=O)Cn1ncc2c3ccccc3n(Cc3ccccc3)c2c1=O,inactive: -27.4%,–
COc1ccc(CCNC(=O)c2cn(C)c3ccc(S(=O)(=O)N4CCOCC4)cc3c2=O)cc1OC,inactive: 17.9%,–
CCOC(=O)c1ccc(NC(=O)CCCn2c(=O)c3cccn3c3cccnc32)cc1,inactive: -20.4%,–
Cc1cccc(Cn2c(SCc3ccc(C(=O)NC4CCCC4)cc3)nc3cccnc32)c1,inactive: -25.8%,–
Cc1nn(-c2ccc(Cl)cc2)c2nc(-c3cccnc3)cc(C(F)(F)F)c12,inactive: -8.35%,–
COc1ccc(NC(=O)C2CCN(S(=O)(=O)c3c(C)noc3/C=C/c3cccs3)CC2)cc1,inactive: -14.2%,–
COc1ccc(OC)c(S(=O)(=O)NCC(c2ccco2)S(=O)(=O)c2ccccc2)c1 (configuration not stated),inactive: 7.12%,–
Cc1ccccc1OCCCCn1c(CCNC(=O)C(C)(C)C)nc2ccccc21,inactive: -24.9%,–
COc1ccc(CC2=NN3C([C@@H](CCc4ccccc4)[C@@H](C)O)=NC(C)C3C(=O)N2)cc1OC (some centres not stated),–,active: 7.69 µM
O=C(CSc1ccccc1)NCc1ccc2c(c1)CCN2C(=O)c1ccccc1,inactive: 4.46%,–
COc1cccc(-c2noc(CCCC(=O)NCc3ccco3)n2)c1,inactive: 9.2%,–
